About 14,000 (4.5%) of roughly 310,000 compounds showed an effect of 50% or more. The effect is printed as a negative number. This is one part of the list.
Each compound was assayed against human ether-à-go-go-related gene (hERG) potassium channel (human, UniProt Q12809) (assay: primary screen, population patch clamp on CHO cells stably expressing hERG).
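Also: peak tail current of the secondary pulse compared with the same well before compound.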

human ether-à-go-go-related gene (hERG) potassium channel, sequence (Q12809 whole entry, looked up): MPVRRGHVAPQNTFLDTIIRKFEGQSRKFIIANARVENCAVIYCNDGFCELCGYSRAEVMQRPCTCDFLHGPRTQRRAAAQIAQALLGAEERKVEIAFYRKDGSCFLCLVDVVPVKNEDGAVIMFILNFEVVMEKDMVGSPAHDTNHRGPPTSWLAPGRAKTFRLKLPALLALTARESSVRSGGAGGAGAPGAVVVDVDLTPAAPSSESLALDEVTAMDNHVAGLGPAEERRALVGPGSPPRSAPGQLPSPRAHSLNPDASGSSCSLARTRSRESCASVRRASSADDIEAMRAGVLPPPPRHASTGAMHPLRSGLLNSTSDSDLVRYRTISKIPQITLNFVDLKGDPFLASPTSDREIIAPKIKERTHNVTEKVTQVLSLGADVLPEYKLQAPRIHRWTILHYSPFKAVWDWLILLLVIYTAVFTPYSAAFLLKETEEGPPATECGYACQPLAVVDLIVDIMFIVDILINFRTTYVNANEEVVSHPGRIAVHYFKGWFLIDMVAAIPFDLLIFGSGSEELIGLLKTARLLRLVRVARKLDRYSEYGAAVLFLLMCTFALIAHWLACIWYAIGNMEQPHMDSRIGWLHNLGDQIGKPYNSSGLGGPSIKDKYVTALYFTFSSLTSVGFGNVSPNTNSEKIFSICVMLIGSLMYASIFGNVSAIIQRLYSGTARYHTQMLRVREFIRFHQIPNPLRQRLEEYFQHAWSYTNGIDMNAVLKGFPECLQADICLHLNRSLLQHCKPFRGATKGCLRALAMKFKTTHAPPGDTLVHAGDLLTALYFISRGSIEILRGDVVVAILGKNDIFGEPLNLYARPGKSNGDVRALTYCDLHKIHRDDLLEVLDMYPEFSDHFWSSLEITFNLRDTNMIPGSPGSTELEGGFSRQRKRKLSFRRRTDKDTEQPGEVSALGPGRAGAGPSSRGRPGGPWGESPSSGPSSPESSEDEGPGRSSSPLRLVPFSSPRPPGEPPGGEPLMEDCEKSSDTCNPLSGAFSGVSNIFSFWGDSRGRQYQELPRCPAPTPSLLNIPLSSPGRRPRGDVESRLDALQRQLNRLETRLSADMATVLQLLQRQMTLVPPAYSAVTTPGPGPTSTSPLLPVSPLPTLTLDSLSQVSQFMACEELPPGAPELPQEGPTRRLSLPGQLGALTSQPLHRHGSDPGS

| Structure (SMILES) | hERG current change (%, negative = inhibition) at 10uM [%] |
| --- | --- |
| Cc1ccc2c(C(=O)CN3CCCCC3)c(C)[nH]c2c1 | -11.1 |
| CCOC(=O)N1CCC(N2Cc3cccc(C(=O)NCc4ccc(C)cc4)c3C2=O)CC1 | -42.6 |
| COc1cc(/C=N/NS(=O)(=O)c2ccc3ccccc3c2)ccc1OCCN1CCOCC1 | -39.5 |
| COc1ccc(C2=CC(=O)N(Nc3ccccc3)C2=O)cc1 | 24.6 |
| Cc1c(NC(=O)c2ccc3c(c2)C(=O)N(Cc2ccco2)C3=O)cccc1C(=O)O | 23.2 |
| COC(=O)c1ccc(CSc2nnc(CNC(=O)COc3ccc(Cl)cc3)o2)o1 | -38.1 |
| CC(Oc1ccc2c(-c3ccccc3)cc(=O)oc2c1)C(=O)N[C@H](Cc1c[nH]c2ccccc12)C(=O)O (some centres unmarked) | 7.48 |
| N#Cc1ccccc1/C=C/C(=O)N1CCOCC1 | 20.2 |
| CCOc1ccc(NC(=O)N2CC(C)OC(C)C2)cc1 (centres unmarked) | 9.92 |
| Cc1ccccc1C(=O)NC(=S)Nc1ncccn1 | -5.71 |
| CC(NC(=O)c1ccc2ccccc2n1)c1ccc(S(N)(=O)=O)cc1 (centres unmarked) | 24.9 |
| CC12CC3(C)CC(C)(C1)CC(C(=O)NCc1cccnc1)(C2)C3 | -11.9 |
| O=C(CSc1ncn[nH]1)N/N=C/c1ccc(F)cc1 | 16.4 |
| CCN(CC)c1nc(SCCOC(=O)Nc2ccccc2)nc(N(CC)CC)n1 | 7.09 |
| CC(=O)NC(CCS(C)(=O)=O)C(=O)Nc1cccc(C)c1C (centres unmarked) | -3.36 |
| O=c1c(Cc2ccccc2)c(O)ccn1C1CCCCCCC1 | 10.1 |
| O=C(OCc1cc2ccccc2[nH]c1=O)c1cccs1 | 17.7 |
| Cc1ccc(CSc2nnc(-c3ccncc3)o2)c(C)c1 | 11.2 |
| COc1cn(-c2ccccc2)nc1C(=O)Nc1ccc(C)cc1 | -6.01 |
| CC(=O)N1N=C(c2ccc(Cl)cc2)CC1c1ccco1 (centres unmarked) | 7.11 |
| Oc1c(N=Nc2ccc(F)cc2)ccc2ccccc12 | 21.6 |
| CCOc1ccc(Oc2ccccc2NC(=O)CSCC(=O)Nc2cc(C)on2)cc1 | 18.7 |

| Structure (SMILES) | hERG current change (%, negative = inhibition) at 10uM [%] |
| --- | --- |
| O=C(Nc1cccc(-c2nc3ccccc3s2)c1)c1cccs1 | -53.1 |
| Nc1nc(NCCN2CCOCC2)nc(NCc2ccccc2)c1[N+](=O)[O-] | -17.6 |
| COCCCNC(=O)CCC(=O)Nc1ccc2nc(N3CCOCC3)cc(C)c2c1 | 4 |
| CC(=O)Nc1ccc(NC(=O)COC(=O)CCc2nc3ccccc3s2)cc1 | 8.76 |
| COc1cc(C(C)=O)ccc1OC(=O)N(C)c1ccccc1 | -3.34 |
| Nc1nc(CN2CCN(c3ccccc3)CC2)nc(Nc2ccc(Cl)cc2)n1 | -76 |
| Cc1cc(C)c(S(=O)(=O)NCC2CCC(C(=O)N3CCC4(CC3)OCCO4)CC2)c(C)c1 (centres unmarked) | -25.3 |
| COc1ccc(Nc2nnc(-c3ccccc3)c3ccccc23)cc1C(=O)N1CCCCC1 | -73 |
| CC(=O)Nc1ccc(S(=O)(=O)/N=C2\SCCN2S(=O)(=O)c2ccc(NC(C)=O)cc2)cc1 | -5.46 |
| CCOc1ccc(CCNC(=O)CS(=O)(=O)Cc2nc(-c3ccc(OC)cc3)oc2C)cc1 | -3.84 |
| CCC(C)(C)NC(=O)C(c1ccccc1)N(C(=O)c1csnn1)C1CC1 (centres unmarked) | 10.7 |
| COCCNC(=S)N(CCc1c(C)[nH]c2ccc(Cl)cc12)Cc1cccnc1 | -39.4 |
| Cc1nnc(SCC(=O)N2CCc3ccccc32)n1-c1ccccc1 | 10.9 |
| O=S(=O)(NCC(c1cccnc1)N1CCN(c2ccc(F)cc2)CC1)c1cccs1 (centres unmarked) | -71.7 |
| CC(C)(CNC(=O)c1cc(-c2ccc(Cl)s2)nc2ccccc12)N1CCOCC1 | -55.1 |
| Nc1cc(N)nc(SCC(=O)NC(=O)NC2CCCC2)n1 | 0.315 |
| Cc1ccc(/C=C/S(=O)(=O)NCc2ccc(F)cc2)cc1 | 7.03 |
| O=C(Cn1c(CO)nc2ccccc21)Nc1ccccc1Cl | 25.1 |
| CC1CN(CCOc2ccccc2-c2ccccc2)CC(C)O1.O=C(O)C(=O)O (centres unmarked) | -9.99 |
| COC(=O)c1ccc(COc2ccccc2/C=C(\C#N)C(=O)Nc2c(C)cccc2C)cc1 | 16.9 |
| O=C1S/C(=C\c2cccs2)C(=O)N1c1ccc(O)cc1 | 21.9 |
| CCOc1cc(C2C(C#N)=C(N)OC3CCCC(=O)C32)ccc1OCCN1CCOCC1 (centres unmarked) | 3.79 |

| Structure (SMILES) | hERG current change (%, negative = inhibition) at 10uM [%] |
| --- | --- |
| CC(C)CNC(=S)Nc1ccccc1F | 6.48 |
| C[C@H](NC(=O)Cc1cccc2ccccc12)C(=O)N1CCCN(C)CC1 | -3.05 |
| CCOC(=O)C1CCN(C(=O)C2CCN(c3ncnc4c3nc3n4CCCCC3)CC2)CC1 | -13.8 |
| COc1ccc(N2CCN(c3ncnc4c3cnn4-c3ccc(C)cc3C)CC2)cc1 | 6.29 |
| O=C(c1cccc2ccccc12)N1CCN(c2ccc([N+](=O)[O-])c(NCc3ccco3)c2)CC1 | 10.2 |
| Cc1cnc(C(=O)N2CCCC(C(=O)c3cccc(OC(C)C)c3)C2)cn1 (centres unmarked) | -7.63 |
| COC(=O)c1cc2oc(C)cc2n1CC(=O)N(C)c1ccccc1 | 5.36 |
| O=C(Nc1nc(-c2cccc([N+](=O)[O-])c2)cs1)c1cccc([N+](=O)[O-])c1C(=O)O | 13.5 |
| CC1=CCC2C(=O)N(C(C)c3ccccc3)C(=O)C2C1 (centres unmarked) | -2.1 |
| COc1ccc(C(=S)N2CCC(C(N)=O)CC2)cc1Br | 9.69 |
| O=C(COC(=O)c1c[nH]c2ccccc12)Nc1ccc(F)cc1 | -12.5 |
| Cc1ccc(C(=O)Oc2cc(C)n(C)c(=O)c2)cc1 | -2.14 |
| COc1ccc(/C=N/NC(=O)CCc2nc3ccccc3[nH]2)cc1 | -21.1 |
| CN(C)S(=O)(=O)c1cccc(C(=O)Nc2cccnc2)c1 | -0.761 |
| O=C(N=C1c2ccccc2CN1c1ccc(F)cc1)c1ccc(Cl)nc1 | -6.44 |
| CC1CC(C)CN(CCCNC(=O)c2c(O)nc3ccccn3c2=O)C1 (centres unmarked) | 6.75 |
| CN(C)c1ccc(CNc2ccc3c(c2)ncn3C(C)(C)C)cc1 | -27.2 |
| COc1ccc(NC(=O)CCCn2nc(C)c3c(C)n(-c4ccccc4)nc3c2=O)cc1OC | 16.5 |
| Nc1c(C(=O)c2ccccc2)sc2nsc(SCCN3CCCC3)c12 | -38.2 |
| COc1ccc(CCNC(=O)Cn2nnc(-c3ccc(N4CCOCC4)cc3)n2)cc1OC | 0.8 |
| COCCNC(=O)C(c1ccc(C)o1)N(Cc1ccc(F)cc1)C(=O)Cn1nnc2ccccc21 (centres unmarked) | 4.34 |
| COc1ccc(CCNC(=O)Cc2cccs2)cc1OC | 25.2 |

| Structure (SMILES) | hERG current change (%, negative = inhibition) at 10uM [%] |
| --- | --- |
| COC(=O)c1c(C(=O)NCc2ccccc2)ncn1CC(O)COc1ccccc1 (centres unmarked) | -8.63 |
| COc1ccc(C(CCN2CCCC(C)C2)c2c(OC)cc(OC)c3c2OC(=O)CC3c2cc(OC)c(OC)c(OC)c2)cc1 (centres unmarked) | -20.6 |
| Cc1ccc(OCC(=O)N2CCCC(N3CCN(c4ccc(F)cc4)CC3)C2)cc1 (centres unmarked) | -101 |
| O=C(C[n+]1ccccc1)N/N=C/c1ccccc1F.[Cl-] | 15.8 |
| CC(C)c1c(C(=O)N/N=C/c2ccncc2)nnn1-c1nonc1N | -17.8 |
| Cc1ccc(-c2nnc(CCC(=O)N(C)Cc3nccs3)o2)s1 | -5.14 |
| CCCCn1c(=O)c(CCC(=O)OCC(=O)Nc2cccc3ccccc23)nc2ccccc21 | -17.9 |
| CCCN(CC(=O)Nc1ccc(F)c(F)c1F)C(=O)c1ccc(N2CCCC2=O)cc1 | -4.37 |
| O=C(Nc1cnc2sccn2c1=O)c1ccc(Cl)cc1Cl | 12.8 |
| O=C(Oc1ccccc1N1C(=O)C2CCCCC2C1=O)c1ccccc1 (centres unmarked) | 30.5 |
| Cc1nc2nc(C)c(CCC(=O)NCCC3=CCCCC3)c(C)n2n1 | 4.49 |
| CCOCCn1c(CN(Cc2ccccc2)Cc2ccccc2)nc2c1c(=O)n(C)c(=O)n2C | -45.6 |
| Cc1nnc(SCC(=O)N2CCN(c3ccccc3)CC2)n(N)c1=O | 7.02 |
| CCCn1c(SCC(=O)Nc2ccc(S(=O)(=O)N(C)C)cc2)n[nH]c1=O | 3.64 |
| C=C(C)CSc1nnc(-c2cccc(S(=O)(=O)N(C)C)c2)n1-c1cc(OC)ccc1OC | -47.4 |
| Cc1cc(NC(=O)C2C3C(=O)N(Cc4ccc(Cl)cc4)C(C(=O)NC4CCCCC4)C34C=CC2(C)O4)no1 (centres unmarked) | -13 |
| Cc1cccc(-n2c(-c3csc(C)c3)n[nH]c2=S)c1 | 17.4 |
| O=C(NCC1CCCO1)c1cc2ccccc2nc1Cl (centres unmarked) | 9.17 |
| CN1CCN(Cc2cccc3ncccc23)CC1CCO (centres unmarked) | 13.8 |
| COC(=O)Cc1ccc(NC(=S)N2CCCCC2C)cc1 (centres unmarked) | -12 |
